These results are taken from CN116203146A (BEIJING DONGFANG BIOTECH CO LTD, dated 2023).

This test addresses 人单核细胞白血病细胞(THP-1)表面LILRB4 (human, UniProt Q8NHJ6 22-448). The test can be described thus: cell-based or functional assay.

B1: 人源化抗LILRB4单克隆抗体HB-Ⅲ (human IgG1/Cκ) (antibody)
heavy: QVQLVQSGAEVKKPGASVKVSCKASGYTFTNYWMHWVRQAPGQGLEWIGEINPSNGRTNYNEKFKTRATLTVDTSTSTAYMELSSLRSEDTAVYYCARWGQLGLREGYYAVDYWGQGTLVTVSSASTKGPSVFPLAPSSKSTSGGTAALGCLVKDYFPEPVTVSWNSGALTSGVHTFPAVLQSSGLYSLSSVVTVPSSSLGTQTYICNVNHKPSNTKVDKRV[skipping human IgG1 Fc with changes]
light: DIVMTQSPSSLSASVGDRVTITCRASQDISNYLNWYQQKPGGAVKLLIYYTSRLHSGVPSRFSGSGSGTDYTFTISSLQPEDIATYFCQQGNTLPPTFGGGTKVEIKRTVAAPSVFIFPPSDEQLKSGTASVVCLLNNFYPREAKVQWKVDNALQSGNSQESVTEQDSKDSTYSLSSTLTLSKADYEKHKVYACEVTHQGLSSPVTKSFNRGEC
For B1, the “IC50, inhibition of ARG1 secretion by THP-1 cells in the presence of ApoE (arginase activity kit)” value turned out to be 30.6 µg/mL.
